Experimental data reported in the BET-seq Pho4 binding data (Le et al. 2018).
The other results are listed elsewhere or left out. These are noisy estimates, calculated here from bound and input reads.

Target: T1, Pho4 (S. cerevisiae) (UniProt P07270)
T1 sequence: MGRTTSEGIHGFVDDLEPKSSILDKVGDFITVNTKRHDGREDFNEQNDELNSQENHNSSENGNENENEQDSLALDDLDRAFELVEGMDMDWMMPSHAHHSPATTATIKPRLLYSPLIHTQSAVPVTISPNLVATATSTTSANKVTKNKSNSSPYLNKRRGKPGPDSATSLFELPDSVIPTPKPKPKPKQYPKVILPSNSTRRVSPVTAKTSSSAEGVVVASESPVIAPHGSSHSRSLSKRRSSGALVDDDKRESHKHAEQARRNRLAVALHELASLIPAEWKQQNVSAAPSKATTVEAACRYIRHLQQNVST
Assay: relative binding free energy (BET-seq); higher = weaker binding
Details: reference: library average

Sequence	relative binding free energy [kcal/mol]
GATATCACGTGTTCGT	0.23
AGGGACACGTGGTGCT	-0.12
CAGCGCACGTGAGGGT	0.24
TTAATCACGTGCTTGA	0.22
TATGTCACGTGGTTTT	0.15
ATGGGCACGTGTGTTA	-0.08
TTTGGCACGTGGTATC	-0.15
ATGTTCACGTGTAAAT	0.29
TGTTGCACGTGTTTTG	0.06
TGGGTCACGTGCGATG	0.15
AGAGTCACGTGTTGTT	0.21
GTAGTCACGTGTGCGA	0.07
GCGGACACGTGTGGGA	-0.07
AAGTGCACGTGGATTT	-0.04
TCGGACACGTGTTTAT	0.09
GTGAGCACGTGCAGTG	-0.03
GTGAACACGTGGTCGA	0.09
TGAGTCACGTGGAGTC	0.2
TTGGGCACGTGTGCGT	-0.12
CTTGGCACGTGGGCGA	-0.24
ATCGACACGTGGGTGT	-0.16
GGGTGCACGTGGTGCT	-0.14
TTAGGCACGTGGAGTT	-0.04
TTCGTCACGTGAATTT	0.45
TCAGGCACGTGTGTTT	-0.02

Sequence	relative binding free energy [kcal/mol]
GTAGGCACGTGAAAAT	0.33
ATGGTCACGTGTTGGC	0.23
TCTGGCACGTGGTTCG	-0.07
AATGACACGTGTTGGA	0
GTGTTCACGTGTCTAA	0.16
TCAATCACGTGTTTGT	0.08
TTAGGCACGTGGATGA	-0.13
TTTGACACGTGTGAAA	0.11
ATTAGCACGTGACTGG	0.06
CGAGTCACGTGTGGGG	0.08
ATGAGCACGTGTGCTT	-0.16
TTGTTCACGTGTGCGG	0.25
AAGACCACGTGTGTGT	0.03
TGTTGCACGTGAAGTG	0.23
GGTAGCACGTGTGCGG	-0.03
GGAATCACGTGTGGTT	0.3
GGTAACACGTGGGTGT	-0.12
AGTTGCACGTGGCGGC	-0.08
TTGAGCACGTGTGTAC	-0.02
GTAGACACGTGGACGG	-0.03
AGGCGCACGTGTGGCT	-0.15
CTTTGCACGTGTTTTT	0.15
GTTTTCACGTGAATAA	0.5
GGGAGCACGTGGCAGG	-0.24
TAGAACACGTGGAGGG	-0.09

Sequence	relative binding free energy [kcal/mol]
GTTTTCACGTGTGCTT	0.29
ATGTTCACGTGTTGGA	0.23
TGTTACACGTGCAGGG	0.11
GAAGACACGTGGGCGG	-0.21
GTAGTCACGTGATTCT	0.29
GGCGGCACGTGGCAGT	-0.15
GTCTTCACGTGGGTTT	0.29
ACTGTCACGTGGTATT	-0.02
AGTAGCACGTGGATAG	-0.05
TGGTCCACGTGTGCGT	0.02
ATTCGCACGTGGTTGC	-0.07
TCTGGCACGTGTTGAT	-0.13
GCTGGCACGTGGGTTA	-0.18
GTTAGCACGTGCGCGT	-0.23
GGGTTCACGTGGTAAT	0.27
AAAGGCACGTGTAGGA	-0.15
GGGTTCACGTGAAGAG	0.37
CTGGGCACGTGTGAGT	-0.02
TGACGCACGTGGGTCG	-0.31
GTGTTCACGTGTGAAG	0.22
GCAGTCACGTGGATGG	-0.01
TACGGCACGTGGGGGT	-0.24
TTGTCCACGTGGGTGC	-0.06
TCTTACACGTGAGGGT	0.32
GGAGACACGTGAGGGA	0.28

Sequence	relative binding free energy [kcal/mol]
TAATCCACGTGGTTGT	-0.1
GAGTACACGTGTAATT	0.41
TTTCACACGTGCGGGT	-0.01
ATTCGCACGTGGCGTT	-0.06
ACGGGCACGTGTAGGG	-0.12
GCGGGCACGTGTGGAA	0.07
TATTGCACGTGGTAAG	-0.01
GTAATCACGTGGTAGA	0.1
TAAGACACGTGGGGGT	-0.1
TATGGCACGTGCATTA	-0.18
TTTTGCACGTGTACGG	0.07
GGAAGCACGTGGAATG	-0.03
GGGTGCACGTGATTCG	0.27
CGTTACACGTGTGAGG	0.21
ATAACCACGTGTGGGG	-0.09
ATGCTCACGTGGTGGT	0.11
GGGGACACGTGGTTAG	0.13
TGTGACACGTGAGTAG	0.03
CGTAACACGTGTGGGA	0.08
GCGGGCACGTGGAATT	0.16
GCGTTCACGTGGAGTG	0.43
TGCGACACGTGCTGGG	-0.06
CATTACACGTGGTAGT	0.03
GGAAACACGTGTGAGG	0.04
TATATCACGTGGGAGG	0.02

Sequence	relative binding free energy [kcal/mol]
TAATACACGTGAATGG	0.32
AGGAGCACGTGGTACG	-0.14
TGTATCACGTGGGTCG	0.01
GTAAGCACGTGTTGTA	-0.04
GGCATCACGTGGCGGG	0.16
ATGGGCACGTGGTTTC	-0.19
TGCGACACGTGAAAGG	0.39
GGCGTCACGTGTAGGG	-0.04
ACTTCCACGTGTTGGG	0.1
GCGTTCACGTGTTAAG	0.34
CGTGGCACGTGCGTGC	-0.24
TGGACCACGTGGGTGA	-0.13
AGGCGCACGTGTTTGG	-0.01
CGATCCACGTGGTGTT	0.11
GAGGACACGTGTATGT	0.02
GTTGTCACGTGGCGCA	0.1
TCTTGCACGTGATTGA	0.17
ATTAACACGTGTCTGT	-0.05
TTCAGCACGTGGATTG	-0.07
GGACGCACGTGTGGAG	0.07
CGGGACACGTGCGGTT	0.09
ATGTGCACGTGCTGCT	-0.05
GTACGCACGTGAGGGA	0.13
GTTAGCACGTGAAGAG	0.35
CGGGACACGTGGGCCG	-0.12

Sequence	relative binding free energy [kcal/mol]
TAGGTCACGTGCGGCT	0.08
ATAATCACGTGTGTGT	0.16
GATGGCACGTGCTGGA	-0.07
TTGGGCACGTGTTAGA	-0.11
GGTTTCACGTGGTCTG	0.31
ATTGCCACGTGGGCTG	-0.17
GAAGGCACGTGATGTT	0.09
AATAGCACGTGGTCTG	-0.09
AGGTACACGTGATTGA	0.15
AGATTCACGTGTAGTC	0.39
TGATCCACGTGTGGGG	0.17
ATGTACACGTGTGAGA	0.17
GGCGTCACGTGCATTG	0.11
TTAGGCACGTGATCAT	-0.13
CTGTGCACGTGTTATA	0.03
TTAGACACGTGCGTTT	-0.07
GTTTGCACGTGGCAGC	0.04
GGATTCACGTGTGTTT	0.14
ATCAGCACGTGGGTAT	-0.22
GATTGCACGTGAGTTG	0.32
TTAGGCACGTGTCAGG	-0.07
